Laboratory results: publication PMC3424240
Results are given in words; binding and its absence hold for the method and conditions named. Binding seen in cells or lysates may run through a third protein. Some entries that bind do so weakly or less than the wild type. For some of these results: Tags and fused reporters may be left off the sequences shown.

Amino acid sequences for entries named in this document (tags omitted).
UniProt Q9UPS6: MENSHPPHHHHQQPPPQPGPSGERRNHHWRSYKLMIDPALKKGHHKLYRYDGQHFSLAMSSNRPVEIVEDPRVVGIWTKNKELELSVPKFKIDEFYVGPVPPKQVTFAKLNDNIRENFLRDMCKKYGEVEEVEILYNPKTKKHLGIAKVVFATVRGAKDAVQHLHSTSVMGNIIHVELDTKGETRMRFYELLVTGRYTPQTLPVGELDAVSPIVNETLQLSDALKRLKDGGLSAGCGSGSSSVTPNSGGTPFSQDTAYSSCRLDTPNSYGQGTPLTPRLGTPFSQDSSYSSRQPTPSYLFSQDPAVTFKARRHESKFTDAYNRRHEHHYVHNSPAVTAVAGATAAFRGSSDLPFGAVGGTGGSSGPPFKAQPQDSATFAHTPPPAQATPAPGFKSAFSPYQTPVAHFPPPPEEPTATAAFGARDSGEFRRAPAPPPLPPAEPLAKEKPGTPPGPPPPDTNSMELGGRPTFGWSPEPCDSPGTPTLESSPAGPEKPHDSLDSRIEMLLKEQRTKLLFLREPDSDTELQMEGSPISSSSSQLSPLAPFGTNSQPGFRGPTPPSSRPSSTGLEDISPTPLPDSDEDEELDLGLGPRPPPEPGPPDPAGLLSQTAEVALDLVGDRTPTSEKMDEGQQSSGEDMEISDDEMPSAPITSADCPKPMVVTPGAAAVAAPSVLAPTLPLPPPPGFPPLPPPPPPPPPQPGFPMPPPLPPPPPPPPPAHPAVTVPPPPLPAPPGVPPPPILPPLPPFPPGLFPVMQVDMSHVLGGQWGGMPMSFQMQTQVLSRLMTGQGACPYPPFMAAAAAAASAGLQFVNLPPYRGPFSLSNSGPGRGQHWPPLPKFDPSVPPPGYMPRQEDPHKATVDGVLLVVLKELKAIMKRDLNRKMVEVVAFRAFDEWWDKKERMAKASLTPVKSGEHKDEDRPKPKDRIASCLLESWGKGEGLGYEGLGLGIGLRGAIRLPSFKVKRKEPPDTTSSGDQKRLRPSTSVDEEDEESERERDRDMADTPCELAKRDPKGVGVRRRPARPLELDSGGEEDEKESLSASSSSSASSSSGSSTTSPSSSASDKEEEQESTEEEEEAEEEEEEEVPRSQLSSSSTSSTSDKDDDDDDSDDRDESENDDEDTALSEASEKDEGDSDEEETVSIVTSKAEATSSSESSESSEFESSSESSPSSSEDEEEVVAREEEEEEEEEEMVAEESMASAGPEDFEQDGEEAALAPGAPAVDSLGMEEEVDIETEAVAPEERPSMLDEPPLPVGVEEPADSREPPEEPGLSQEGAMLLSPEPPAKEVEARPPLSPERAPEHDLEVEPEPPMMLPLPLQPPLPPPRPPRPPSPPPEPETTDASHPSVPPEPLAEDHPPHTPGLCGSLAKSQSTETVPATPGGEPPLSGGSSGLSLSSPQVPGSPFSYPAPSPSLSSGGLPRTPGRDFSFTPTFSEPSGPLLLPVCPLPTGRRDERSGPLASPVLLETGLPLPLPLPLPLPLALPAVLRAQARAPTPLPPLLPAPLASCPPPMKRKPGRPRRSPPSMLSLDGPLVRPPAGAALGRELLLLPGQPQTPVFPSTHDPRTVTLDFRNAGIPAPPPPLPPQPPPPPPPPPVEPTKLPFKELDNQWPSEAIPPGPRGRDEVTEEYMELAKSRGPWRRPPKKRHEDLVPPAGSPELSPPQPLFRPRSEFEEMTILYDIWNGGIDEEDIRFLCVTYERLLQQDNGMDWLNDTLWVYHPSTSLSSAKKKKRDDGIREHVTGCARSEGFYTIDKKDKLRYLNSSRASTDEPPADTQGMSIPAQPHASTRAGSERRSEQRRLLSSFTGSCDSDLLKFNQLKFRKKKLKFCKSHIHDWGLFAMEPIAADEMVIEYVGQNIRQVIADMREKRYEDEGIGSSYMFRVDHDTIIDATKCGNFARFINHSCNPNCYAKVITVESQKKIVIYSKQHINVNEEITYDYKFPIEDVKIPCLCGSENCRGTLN

Columns and labels:
[1] = biological target: T1, FLAG-Rbm15 (human) (UniProt Q96T37); test: co-IP; FLAG immunoprecipitation from nuclear extracts of transiently transfected HEK293 cells, Western blotting for endogenous partners
T1 sequence: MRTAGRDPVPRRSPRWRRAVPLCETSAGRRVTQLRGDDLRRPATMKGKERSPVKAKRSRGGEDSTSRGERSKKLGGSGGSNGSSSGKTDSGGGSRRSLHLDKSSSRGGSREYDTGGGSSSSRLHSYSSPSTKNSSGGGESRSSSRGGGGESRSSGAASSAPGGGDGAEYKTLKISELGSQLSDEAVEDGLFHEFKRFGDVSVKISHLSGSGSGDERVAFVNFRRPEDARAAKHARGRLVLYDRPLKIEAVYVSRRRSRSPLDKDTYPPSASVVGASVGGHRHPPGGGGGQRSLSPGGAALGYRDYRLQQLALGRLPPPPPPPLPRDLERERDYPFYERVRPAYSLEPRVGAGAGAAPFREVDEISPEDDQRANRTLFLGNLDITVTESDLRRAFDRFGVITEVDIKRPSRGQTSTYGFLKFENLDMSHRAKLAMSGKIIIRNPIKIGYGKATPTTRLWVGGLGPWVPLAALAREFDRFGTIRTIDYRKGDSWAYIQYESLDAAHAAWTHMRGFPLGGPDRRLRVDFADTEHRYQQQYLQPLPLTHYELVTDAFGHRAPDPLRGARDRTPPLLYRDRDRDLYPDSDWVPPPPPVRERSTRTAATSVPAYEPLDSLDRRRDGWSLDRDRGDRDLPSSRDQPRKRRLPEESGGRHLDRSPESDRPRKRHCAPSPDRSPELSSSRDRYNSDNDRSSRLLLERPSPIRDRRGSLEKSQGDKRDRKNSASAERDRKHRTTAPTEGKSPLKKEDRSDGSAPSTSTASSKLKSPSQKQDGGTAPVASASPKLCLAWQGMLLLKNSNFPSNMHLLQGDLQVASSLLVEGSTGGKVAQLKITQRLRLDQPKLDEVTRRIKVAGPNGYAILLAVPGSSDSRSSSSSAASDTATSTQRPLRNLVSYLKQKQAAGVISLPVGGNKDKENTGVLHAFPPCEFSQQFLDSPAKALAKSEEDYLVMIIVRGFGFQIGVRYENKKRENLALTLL

[2] = biological target: T2, FLAG-Rbm15 508 to 929 aa fragment (human) (UniProt Q96T37); test: co-IP; FLAG immunoprecipitation from whole cell extracts of transiently transfected HEK293 cells, Western blotting for endogenous partners
T2 sequence: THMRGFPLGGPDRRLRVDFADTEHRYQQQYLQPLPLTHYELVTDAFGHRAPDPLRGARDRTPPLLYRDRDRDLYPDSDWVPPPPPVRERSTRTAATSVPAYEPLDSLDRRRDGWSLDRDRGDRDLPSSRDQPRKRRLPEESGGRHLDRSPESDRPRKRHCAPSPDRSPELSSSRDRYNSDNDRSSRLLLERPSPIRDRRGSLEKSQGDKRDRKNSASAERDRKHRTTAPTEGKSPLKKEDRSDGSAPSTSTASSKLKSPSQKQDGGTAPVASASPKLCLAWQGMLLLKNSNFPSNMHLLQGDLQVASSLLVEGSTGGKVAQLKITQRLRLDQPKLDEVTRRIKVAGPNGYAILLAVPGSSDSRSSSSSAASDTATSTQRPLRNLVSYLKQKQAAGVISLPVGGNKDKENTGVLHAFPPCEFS

[3] = biological target: T3, FLAG-Rbm15 fragment aa 782 to 977 (human) (UniProt Q96T37); test: as above
T3 sequence: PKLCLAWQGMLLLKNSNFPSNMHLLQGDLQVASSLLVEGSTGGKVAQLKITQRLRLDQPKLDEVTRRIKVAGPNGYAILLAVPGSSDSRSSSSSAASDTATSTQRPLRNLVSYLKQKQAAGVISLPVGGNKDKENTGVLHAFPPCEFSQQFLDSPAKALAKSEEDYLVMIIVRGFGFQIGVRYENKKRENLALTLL

[4] = biological target: T1, FLAG-Rbm15 (human); test: co-IP; FLAG immunoprecipitation (FLAG-IgG agarose) from nuclear extracts of inducible T-REx HEK293 stable lines, Western blotting for endogenous partners
[5] = biological target: T4, FLAG-Mkl1 (human) (UniProt Q969V6); test: as above
T4 sequence: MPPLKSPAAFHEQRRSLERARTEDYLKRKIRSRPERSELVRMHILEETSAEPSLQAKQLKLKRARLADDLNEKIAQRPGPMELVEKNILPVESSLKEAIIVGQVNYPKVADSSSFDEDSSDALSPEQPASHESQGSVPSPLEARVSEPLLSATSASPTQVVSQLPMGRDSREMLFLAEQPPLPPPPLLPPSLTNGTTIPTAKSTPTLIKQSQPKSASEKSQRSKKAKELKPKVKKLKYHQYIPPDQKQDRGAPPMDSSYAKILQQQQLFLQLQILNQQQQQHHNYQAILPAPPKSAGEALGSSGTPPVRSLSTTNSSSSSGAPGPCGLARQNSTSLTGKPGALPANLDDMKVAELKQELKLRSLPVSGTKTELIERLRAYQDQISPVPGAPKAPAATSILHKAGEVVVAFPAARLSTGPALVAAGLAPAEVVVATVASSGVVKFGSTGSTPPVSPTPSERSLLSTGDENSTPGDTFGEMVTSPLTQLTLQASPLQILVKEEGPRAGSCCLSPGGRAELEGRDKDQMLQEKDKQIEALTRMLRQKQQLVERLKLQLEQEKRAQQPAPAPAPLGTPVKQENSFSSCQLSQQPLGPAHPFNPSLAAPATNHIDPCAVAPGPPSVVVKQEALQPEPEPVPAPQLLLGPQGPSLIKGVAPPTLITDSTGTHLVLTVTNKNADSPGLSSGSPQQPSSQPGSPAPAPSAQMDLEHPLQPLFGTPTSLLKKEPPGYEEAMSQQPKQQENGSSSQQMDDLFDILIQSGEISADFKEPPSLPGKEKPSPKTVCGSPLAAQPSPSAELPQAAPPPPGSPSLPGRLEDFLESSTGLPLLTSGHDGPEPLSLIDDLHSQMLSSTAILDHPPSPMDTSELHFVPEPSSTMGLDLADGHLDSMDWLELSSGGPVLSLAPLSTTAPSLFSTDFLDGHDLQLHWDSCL

[6] = biological target: T5, endogenous Rbm15 (human (endogenous in HEK293)) (UniProt Q96T37); test: co-IP; immunoprecipitation with antisera against Setd1b or Rbm15 from nuclear extracts of HEK293 cells (endogenous proteins), Western blotting
T5 sequence: T1 sequence

[7] = biological target: T1, FLAG-Rbm15 (human); test: co-IP; FLAG immunoprecipitation from whole cell extracts of T-REx HEK293 lines induced with 1 µg/ml doxycycline for three days, in the presence or absence of RNase A (50 ug/ml, 15 min, 37°C)

binding [1]: binds
binding [2]: no binding
binding [3]: binds
binding [4]: binds
binding [5]: no binding
binding [6]: binds
binding [7]: binds
Substance: endogenous Setd1b (from UniProt Q9UPS6 1-1966)
